# Reference: the supplement of paper PMC8728848
# Some of the results follow.
# Assays:
# Experiment in all cases: glycan array binding signal (z-score within array); higher = stronger binding
# Settings in all cases: glycan notation: IUPAC condensed, linker removed
# [1] = molecular target: Neu5Ac(a2-6)Gal(b1-4)GlcNAc(b1-6)GalNAc
# Outline: (§1)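 Arrays were curated from the Consortium for Functional Glycomics database, 3228 in total, and kept only where the protein sequence was available. Binding is expressed as a within-array Z-score. This score was averaged across arrays of the same protein sequence at different concentrations or buffers and across linkers, and negative values can be read as non-binding.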
# [2] = molecular target: Neu5Ac(a2-6)Gal(b1-4)GlcNAc(b1-6)[Gal(b1-3)GlcNAc(b1-3)]Gal(b1-4)Glc
# Outline: as §1
# [3] = molecular target: Neu5Ac(a2-6)Gal(b1-4)GlcNAc(b1-6)[Gal(b1-3)]GalNAc
# Outline: as §1
# [4] = molecular target: Neu5Ac(a2-6)Gal(b1-4)GlcNAc6S
# Outline: as §1
# Neu5Ac(a2-6)GalNAc = molecular target: Neu5Ac(a2-6)GalNAc
# Outline: as §1
# [5] = molecular target: Neu5Ac(a2-6)GalNAc(b1-4)GlcNAc
# Outline: as §1
# [6] = molecular target: Neu5Ac(a2-6)GalNAc(b1-4)GlcNAc6S
# Outline: as §1
# [7] = molecular target: Neu5Ac(a2-6)GlcNAc(b1-4)GlcNAc
# Outline: as §1
# [8] = molecular target: Neu5Ac(a2-6)GlcNAc(b1-4)GlcNAc(b1-4)GlcNAc
# Outline: as §1
# Neu5Ac(a2-8)Neu5Ac = molecular target: Neu5Ac(a2-8)Neu5Ac
# Outline: as §1
# [9] = molecular target: Neu5Ac(a2-8)Neu5Ac(a2-3)Gal(b1-3)GalNAc(b1-4)[Neu5Ac(a2-3)]Gal(b1-4)Glc
# Outline: as §1
# [10] = molecular target: Neu5Ac(a2-8)Neu5Ac(a2-3)Gal(b1-3)GalNAc(b1-4)[Neu5Ac(a2-8)Neu5Ac(a2-3)]Gal(b1-4)Glc
# Outline: as §1
# [11] = molecular target: Neu5Ac(a2-8)Neu5Ac(a2-3)Gal(b1-4)Glc
# Outline: as §1
# [12] = molecular target: Neu5Ac(a2-8)Neu5Ac(a2-3)Gal(b1-4)GlcNAc
# Outline: as §1
# [13] = molecular target: Neu5Ac(a2-8)Neu5Ac(a2-3)[Gal(b1-3)GalNAc(b1-4)]Gal(b1-4)Glc
# Outline: as §1
# [14] = molecular target: Neu5Ac(a2-8)Neu5Ac(a2-3)[GalNAc(b1-4)]Gal(b1-4)Glc
# Outline: as §1
# [15] = molecular target: Neu5Ac(a2-8)Neu5Ac(a2-8)Neu5Ac
# Outline: as §1
# [16] = molecular target: Neu5Ac(a2-8)Neu5Ac(a2-8)Neu5Ac(a2-3)Gal(b1-4)Glc
# Outline: as §1
# [17] = molecular target: Neu5Ac(a2-8)Neu5Ac(a2-8)Neu5Ac(a2-3)[Gal(b1-3)GalNAc(b1-4)]Gal(b1-4)Glc
# Outline: as §1
# [18] = molecular target: Neu5Ac(a2-8)Neu5Ac(a2-8)Neu5Ac(a2-3)[GalNAc(b1-4)]Gal(b1-4)Glc
# Outline: as §1
# [19] = molecular target: Neu5Ac(a2-8)Neu5Ac(a2-8)Neu5Ac(a2-8)Neu5Ac(a2-3)[GalNAc(b1-4)]Gal(b1-4)Glc
# Outline: as §1
# [20] = molecular target: Neu5Ac(a2-8)Neu5Gc(a2-3)Gal(b1-4)GlcNAc
# Outline: as §1
# [21] = molecular target: Neu5Ac(b2-6)Gal(b1-4)GlcNAc
# Outline: as §1
# Neu5Ac(b2-6)GalNAc = molecular target: Neu5Ac(b2-6)GalNAc
# Outline: as §1
# [22] = molecular target: Neu5Ac9Ac(a2-3)Gal(b1-3)GlcNAc
# Outline: as §1
# [23] = molecular target: Neu5Ac9Ac(a2-3)Gal(b1-4)GlcNAc
# Outline: as §1
# [24] = molecular target: Neu5Ac9Ac(a2-6)Gal(b1-4)GlcNAc
# Outline: as §1
# [25] = molecular target: Neu5Gc(a2-3)Gal(b1-3)GlcNAc
# Outline: as §1
# [26] = molecular target: Neu5Gc(a2-3)Gal(b1-3)[Fuc(a1-4)]GlcNAc
# Outline: as §1
# Neu5Gc(a2-3)Gal(b1-4)Glc = molecular target: Neu5Gc(a2-3)Gal(b1-4)Glc
# Outline: as §1
# [27] = molecular target: Neu5Gc(a2-3)Gal(b1-4)GlcNAc
# Outline: as §1
# [28] = molecular target: Neu5Gc(a2-3)Gal(b1-4)GlcNAc(b1-3)Gal(b1-4)GlcNAc(b1-2)Man(a1-3)[Neu5Gc(a2-3)Gal(b1-4)GlcNAc(b1-3)Gal(b1-4)GlcNAc(b1-2)Man(a1-6)]Man(b1-4)GlcNAc(b1-4)GlcNAc
# Outline: as §1
# [29] = molecular target: Neu5Gc(a2-3)Gal(b1-4)[Fuc(a1-3)]GlcNAc
# Outline: as §1
# [30] = molecular target: Neu5Gc(a2-6)Gal(b1-4)GlcNAc
# Outline: as §1
# Neu5Gc(a2-6)GalNAc = molecular target: Neu5Gc(a2-6)GalNAc
# Outline: as §1
# [31] = molecular target: Neu5Gc(a2-8)Neu5Ac(a2-3)Gal(b1-4)GlcNAc
# Outline: as §1
# [32] = molecular target: Neu5Gc(a2-8)Neu5Gc(a2-3)Gal(b1-4)GlcNAc
# Outline: as §1
# [33] = molecular target: Neu5Gc(a2-8)Neu5Gc(a2-3)Gal(b1-4)GlcNAc(b1-3)Gal(b1-4)GlcNAc
# Outline: as §1
binder,measurement,setting,value
GSL-I-B4 (Griffonia simplicifolia) (protein) NFWSDVEDSIIFQGDANTTAGTLQLCKTNQYGTPLQWSAGRALYSDPVQLWDNKTESVASFYTEFTFFLKITGNGPADGLAFFLAPPDSDVKDAGEYLGLFNKSTATQPSKNQVVAVEFDTWTNPNFPEPSYRHIGINVNSIVSVATKRWEDSDIFSGKIATARISYDGSAEILTVVLSYPDGSDYILSHSVDMRQNLPESVRVGISASTGNNQFLTVYILSWRFSSNLQSTSVKAAMEPEITRTVV,glycan array binding signal (z-score),[1],-0.124
same,glycan array binding signal (z-score),[2],-0.205
same,glycan array binding signal (z-score),[3],-0.147
same,glycan array binding signal (z-score),[4],-0.143
same,glycan array binding signal (z-score),Neu5Ac(a2-6)GalNAc,-0.224
same,glycan array binding signal (z-score),[5],-0.198
same,glycan array binding signal (z-score),[6],-0.181
same,glycan array binding signal (z-score),[7],-0.014
same,glycan array binding signal (z-score),[8],-0.169
same,glycan array binding signal (z-score),Neu5Ac(a2-8)Neu5Ac,-0.134
same,glycan array binding signal (z-score),[9],-0.089
same,glycan array binding signal (z-score),[10],-0.227
same,glycan array binding signal (z-score),[11],-0.205
same,glycan array binding signal (z-score),[12],-0.154
same,glycan array binding signal (z-score),[13],-0.199
same,glycan array binding signal (z-score),[14],-0.224
same,glycan array binding signal (z-score),[15],-0.144
same,glycan array binding signal (z-score),[16],-0.113
same,glycan array binding signal (z-score),[17],-0.092
same,glycan array binding signal (z-score),[18],-0.151
same,glycan array binding signal (z-score),[19],-0.128
same,glycan array binding signal (z-score),[20],-0.18
same,glycan array binding signal (z-score),[21],-0.199
same,glycan array binding signal (z-score),Neu5Ac(b2-6)GalNAc,-0.2
same,glycan array binding signal (z-score),[22],-0.176
same,glycan array binding signal (z-score),[23],-0.134
same,glycan array binding signal (z-score),[24],-0.205
same,glycan array binding signal (z-score),[25],-0.171
same,glycan array binding signal (z-score),[26],-0.186
same,glycan array binding signal (z-score),Neu5Gc(a2-3)Gal(b1-4)Glc,-0.183
same,glycan array binding signal (z-score),[27],-0.151
same,glycan array binding signal (z-score),[28],-0.168
same,glycan array binding signal (z-score),[29],-0.163
same,glycan array binding signal (z-score),[30],-0.157
same,glycan array binding signal (z-score),Neu5Gc(a2-6)GalNAc,-0.212
same,glycan array binding signal (z-score),[31],-0.183
same,glycan array binding signal (z-score),[32],-0.155
same,glycan array binding signal (z-score),[33],-0.181
